# Results filed as inconclusive are left out. The call rests on the fitted dose curve; in most records, active means well fitted curve in the direction sought with a large enough effect in the repeat runs; inconclusive means weak or mixed curves; inactive means no such curve, though single readings can be large; an effect the other way counts as inactive or inconclusive. Some compounds were tested as several samples or in several runs, with calls that do not always agree. Some entries of the source have several records that differ or are many. This is not the full list of results. The source may hold further records. Values that stand side by side are repeats (runs, samples, wells, individuals or studies). Records carry a tag for their origin. A, B and so on number the origins entry by entry.
# Tests used:
# [1] = A CellTox Green Cytotoxicity Assay to monitor cytotoxicity in HEK293 cells - 24 hour (AID 1224875); further: nearly all actives have a fitted effect of over 45% in size
# Outline: (§1)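 Fluorescence intensity, read at 0, 8, 16, 24, 32 and 40 h of compound treatment, reflected dye binding to DNA of dead HEK293 cells; compounds (23 nL, DMSO) were added 5 h after plating cells with reagent.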
# [2] = qHTS assay to identify small molecule antagonists of the progesterone receptor (PR) signaling pathway - cell viability counter screen (AID 1346798); further: nearly all actives have a fitted effect of over 50% in size
# Outline: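 ATP content as viability readout: CellTiter-Glo luminescence, 30 min room temperature, in PR-UAS-bla HEK293T cells after 16 hr compound/R5020 treatment at 37C and 5% CO2.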
# [3] = qHTS assay to identify small molecule antagonists of the thyroid receptor (TR) signaling pathway (AID 743065); further: nearly all actives have a fitted effect of over 55% in size
# Outline: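 Antagonism measured as loss of luciferase signal in GH3 cells stably carrying a TRE-luciferase reporter, co-treated with compound and T3 (1 nM final) for 23.5 h at 37 C. Viability was read in the same well by CellTiter-Fluor.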
# [4] = qHTS assay to identify small molecule antagonists of the glucocorticoid receptor (GR) signaling pathway - cell viability counter screen (AID 720693); further: nearly all actives have a fitted effect of over 55% in size
# [5] = qHTS assay to identify small molecule antagonists of the peroxisome proliferator-activated receptor gamma (PPARg) signaling pathway - cell viability counter screen (AID 743194); further: nearly all actives have a fitted effect of over 55% in size
# Outline: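 Viability was measured as CellTiter-Glo luminescence in GeneBLAzer PPARg UAS-bla HEK293H cells. These cells had been exposed 17 h at 37 C to compounds together with rosiglitazone at 50 nM final, with the beta-lactamase readout taken in the same wells.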
# [6] = A CellTox Green Cytotoxicity Assay to monitor cytotoxicity in HEK293 cells - 16 hour (AID 1224888); further: nearly all actives have a fitted effect of over 35% in size
# Outline: as §1
# Potency means the concentration at half of the fitted maximal effect.
smiles,measurement,setting,value
Brc1ccc(Oc2ccccc2)cc1,Potency,[1],active: 50.2 µM [sample A] and inactive [sample B]
same,Potency,[2],active: 55.8 µM [sample A] and inactive [sample B]
C(=NC1CCCCC1)=NC1CCCCC1,Potency,[3],inactive [sample A] and active: 9.69 µM [sample B]
Cn1sc(Cl)cc1=O,Potency,[3],inactive [sample A] and active: 61.1 µM [sample B]
O=C(CCl)c1ccc(Cl)cc1Cl,Potency,[4],active: 6.01 µM [sample A] and active: 13.8 µM [sample B] and inactive [sample C]
same,Potency,[5],inactive [sample A] and active: 23.7 µM [sample B]
CCOP(=S)(OCC)Oc1nc(Cl)c(Cl)cc1Cl,Potency,[1],active: 43.8 µM [sample A] and inactive [sample B]
same,Potency,[6],active: 49.1 µM [sample A] and inactive [sample B]

# Reference: PubChem BioAssay (Tox21)
